In all, about 310,000 compounds went through this assay and about 14,000 (4.5%) showed an effect of 50% or more. Effects have a minus sign here. This is one part of the list.
Biological target: human ether-à-go-go-related gene (hERG) potassium channel (human, UniProt Q12809)
Experiment: primary screen, population patch clamp on CHO cells stably expressing hERG
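Note: peak tail current of the secondary pulse compared with the same well before compound.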

Sequence of human ether-à-go-go-related gene (hERG) potassium channel (Q12809 whole entry, looked up): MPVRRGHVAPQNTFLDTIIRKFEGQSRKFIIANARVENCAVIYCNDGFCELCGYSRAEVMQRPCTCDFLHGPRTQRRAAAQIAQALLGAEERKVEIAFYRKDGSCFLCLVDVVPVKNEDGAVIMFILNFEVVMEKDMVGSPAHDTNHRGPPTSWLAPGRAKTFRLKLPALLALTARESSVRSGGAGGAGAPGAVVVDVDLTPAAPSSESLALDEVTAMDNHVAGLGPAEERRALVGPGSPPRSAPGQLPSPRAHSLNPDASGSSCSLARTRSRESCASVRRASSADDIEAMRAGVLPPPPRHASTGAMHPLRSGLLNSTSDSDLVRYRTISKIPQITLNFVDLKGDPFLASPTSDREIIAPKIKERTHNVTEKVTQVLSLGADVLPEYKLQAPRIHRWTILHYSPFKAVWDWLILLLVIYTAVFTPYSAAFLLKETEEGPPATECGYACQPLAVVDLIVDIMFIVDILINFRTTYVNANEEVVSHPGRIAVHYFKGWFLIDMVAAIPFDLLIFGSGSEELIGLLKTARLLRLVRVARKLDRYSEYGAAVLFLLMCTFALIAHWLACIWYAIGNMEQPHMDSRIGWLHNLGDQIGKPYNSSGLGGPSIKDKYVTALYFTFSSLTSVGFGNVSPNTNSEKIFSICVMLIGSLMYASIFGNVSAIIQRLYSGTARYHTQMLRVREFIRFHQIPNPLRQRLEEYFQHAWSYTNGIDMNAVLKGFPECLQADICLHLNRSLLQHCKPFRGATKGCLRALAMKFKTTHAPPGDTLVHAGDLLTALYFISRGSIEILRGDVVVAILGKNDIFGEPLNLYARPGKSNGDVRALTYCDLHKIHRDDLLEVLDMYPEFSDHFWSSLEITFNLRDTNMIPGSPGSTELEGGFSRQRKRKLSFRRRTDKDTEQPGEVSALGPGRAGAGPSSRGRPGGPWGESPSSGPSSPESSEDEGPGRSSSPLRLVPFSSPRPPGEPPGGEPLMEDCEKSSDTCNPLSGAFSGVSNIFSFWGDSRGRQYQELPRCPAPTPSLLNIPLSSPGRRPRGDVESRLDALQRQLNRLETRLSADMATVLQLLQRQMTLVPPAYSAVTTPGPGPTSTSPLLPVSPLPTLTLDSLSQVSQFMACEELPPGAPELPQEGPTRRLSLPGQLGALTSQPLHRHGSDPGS

Structure (SMILES) | hERG current change (%, negative = inhibition) at 10uM [%]
CN(CC(=O)Nc1ccc(S(=O)(=O)N2CCCC2)cc1)Cc1cccc(Cl)c1Cl | 4.15
COc1ccccc1CNC(=O)COC(=O)c1ccc(S(=O)(=O)N2CCCC2)cc1 | 2.79
CCc1cccc(C)c1NC(=O)c1cc(C)oc1C | 1.85
COCCCn1c(SCc2nc3ccccc3c(=O)[nH]2)nc2ccccc2c1=O | -24.7
O=[N+]([O-])c1ccc2nc(NS(=O)(=O)c3ccc(Cl)cc3)sc2c1 | -2.1
COC(=O)CCCC(=O)N1CCCC(C(=O)c2ccc(-c3ccccc3)cc2)C1 (stereo not shown) | -12
CC(=O)Nc1ccc(C(=O)N/N=C/c2ccccc2OC(=O)c2ccc(Cl)cc2)cc1 | 1.42
CCCNC(=O)c1cn(CC)c2cc(N3CCN(C)CC3)c(F)cc2c1=O | 9.26
O=C(N/N=C\c1ccc(Cl)cc1Cl)c1sccc1-n1cccc1 | -0.158
S=C(NCCCN1CCOCC1)Nc1cccc(Cl)c1 | -10.6
Cc1ccc(C(=O)N2CC=C(c3ccccc3)CC2)o1 | -12.7
C[C@@H](CSc1ccccc1)CN1CC[C@H](C(C)(C)C)CCC1=O | 1.34
Cc1ccc(S(=O)(=O)NCC(=O)OCC(=O)NC(=O)NC2CCCC2)cc1 | 16.6
CCn1c(SCC(=O)N/N=C\c2ccccc2OCC(=O)O)nnc1-c1ccc(Cl)cc1 | -1.56
CN(C1CCCCC1)S(=O)(=O)c1ccc(S(=O)(=O)N2CCN(C(=O)c3ccccc3F)CC2)cc1 | -12.2
CC(C)Oc1cc(NC(=O)CS(=O)CC(=O)Nc2cccc(C(F)(F)F)c2)c(Cl)cc1Cl (stereo not shown) | 2.95
Cn1nc(C(F)(F)F)c(/C=N/OC(=O)c2ccccc2)c1Cl | 3.92
Cc1cc(OCC(=O)O/N=C(\N)c2ccccc2)ccc1Cl | 19.3
O=C(NCc1ccco1)/C(=C/c1ccc(F)cc1)NC(=O)c1ccccc1 | -14.1
Cc1ccccc1C(=O)Oc1ccc(Br)cc1C(=S)N1CCCC1 | -1.75

Structure (SMILES) | hERG current change (%, negative = inhibition) at 10uM [%]
c1ccc(C2N3CCCN23)cc1 (stereo not shown) | 12.9
Fc1ccccc1CCNc1nnnn1-c1ccccc1 | 10.1
Cc1nc(C(=O)Nc2ccc(Cl)cc2)sc1C1(C)CC(c2cccc([N+](=O)[O-])c2)=NO1 (stereo not shown) | -16.8
O=C(O)Cn1c(=O)c2c3c(sc2n(Cc2ccc(Cl)cc2Cl)c1=O)CCCC3 | -4.17
CS(=O)(=O)c1cccc(-c2csc(N3CCC(C(N)=O)CC3)n2)c1.O=C(O)C(F)(F)F | -22.5
Cc1ccc(CN2C(=O)CSc3ccc(C(=O)NC4CC4)cc32)cc1 | -10.7
Cc1ccc(C(=O)NCc2ccccc2)cc1Br | -1.73
CCOC(=O)c1ccc(NC(=S)N2CCC(O)CC2)cc1 | 18
CN(C)S(=O)(=O)c1cc(NC(=O)CN2CCN(c3ccccc3F)CC2)ccc1Cl | 5.43
N#Cc1cc(Br)ccc1N=C1CCCN1c1ccccc1 | -9.61
COC(=O)CCCC1=CC2=CC(=O)C(C)(OC(=O)c3ccc(Cl)nc3)C(=O)C2=CO1 (stereo not shown) | 10.4
CCc1nnc(NC(=O)CSc2ncc(-c3ccccc3)n2C)s1 | -0.226
CSc1ccc(S(=O)(=O)NCCCOC(C)C)cc1 | -0.0722
COC(=O)CCNC(=O)CCc1ccc(S(=O)(=O)N2CCCCCC2)cc1 | -12.1
CC(NC(=O)c1cccc(Br)c1)c1ccccc1 (stereo not shown) | -2.43
Cl.OC(COc1c(F)cc(Br)cc1F)CN1CCOCC1 (stereo not shown) | 2.28
C/C(=N\Nc1nc2ccccc2s1)c1cccs1 | 32.4
Cc1ccsc1CN(C)C(=O)CN1C(=O)NC2(CCCc3ccccc32)C1=O (stereo not shown) | -29.6
COc1ccc(-n2nc(C(=O)NCC(=O)N3CCC(C)CC3)c3ccccc3c2=O)c(OC)c1 | -4.75
CC1(C)Cc2c(cnn2-c2cccc(F)c2)C(NC(=O)CN2CCCC2=O)C1 (stereo not shown) | 8.24

Structure (SMILES) | hERG current change (%, negative = inhibition) at 10uM [%]
CC1=CC(C)C(C(=O)O)C(C(=O)O)C1 (stereo not shown) | 35.3
Cc1cc(NC(=O)CN2CCN(c3ncccn3)CC2)no1.Cl | 8.63
O=S(=O)(c1ccccc1)n1cc(-c2ccccn2)c(N2CCOCC2)n1 | -6.36
Cc1cc(C)n(-c2ncc3c(n2)N(C)CCOC3=O)n1 | 12.8
CCC(=O)c1c(NCCc2ccccc2)cc(C)oc1=O | 26.9
Cc1cccc(C(=O)N/N=C/c2ccncc2)c1 | 11.6
CCC(OC(=O)c1ccco1)C(=O)NCc1ccc(C)cc1 (stereo not shown) | -9.07
CCCOc1ccc(-c2cnc(SCC(N)=O)nc2N)cc1 | -0.0819
Cc1ccc(N/C=C2\C(=O)C3(C)CCC2C3(C)C)cc1C (stereo not shown) | 12.7
NC(=O)c1ccccc1NC(=O)Nc1ccc(F)c(Cl)c1 | 9.38
Cc1ccc(S(=O)(=O)N2CCN(CC(=O)Nc3ccccc3Cl)CC2)cc1 | -0.79
Cc1ccc2c(c1)sc1nc(=O)n(-c3ccc(Cl)c(Cl)c3)c(=O)n12 | 5.1
CO/N=C/NC(=O)c1cn(-c2ccc(F)cc2)c(=O)c2ccccc12 | -10.1
Cc1nc([N+](=O)[O-])cn1C(C)C | 2.46
CCOc1ccc(NC(=O)c2cc(=O)[nH]c3ccccc23)cc1 | 9.97
O=c1cc(-c2ccccc2)c2cc3c(cc2[nH]1)OCCO3 | 16.2
Cc1noc(C)c1COC(=O)c1ccc2c(c1)OCO2 | 8.72
Cc1cccc2nc(CSc3ccccc3N)cn12 | 3.9
